The whole screen tested about 50,000 compounds, of which about 800 (1.6%) showed an effect of 50% or more. The list shows a part of the results.
Biological target: Bcl-2-like protein 10 (Homo sapiens) (UniProt Q9HD36)
Test: TR3 peptide-Bcl-B binding displacers, biochemical primary FP assay, phenotype converters (AID 1240);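 also: 0% = Bcl-B with tracer peptide and DMSO and 100% = tracer peptide lacking Bcl-B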
Conditions: GST-Bcl-B / FITC-TR3 peptide fluorescence polarization; stronger effect = higher value; compound at 3.75 mg/L

Sequence of UniProt Q9HD36 (Q9HD36 whole entry, looked up): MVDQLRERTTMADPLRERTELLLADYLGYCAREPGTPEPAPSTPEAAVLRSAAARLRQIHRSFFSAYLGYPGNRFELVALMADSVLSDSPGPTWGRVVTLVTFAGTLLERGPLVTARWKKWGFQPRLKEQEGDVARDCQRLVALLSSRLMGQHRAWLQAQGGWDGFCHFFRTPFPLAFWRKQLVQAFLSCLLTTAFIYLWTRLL

| SMILES | displacement [%] |
| --- | --- |
| O=C(N=C1SCC(=O)N1c1ccccc1Cl)c1ccco1 | 7.9 |
| Cc1ccc(C)c(NC(=O)C2CC(=O)N(c3ccc(Br)cc3)C2)c1 (centres undefined) | 0.6 |
| CC(=O)c1ccc(NC(=O)C2CCC2)cc1 | -10.9 |
| CCCOc1cccc(C(=O)Nc2ccc(F)c([N+](=O)[O-])c2)c1 | 13.4 |
| CCN(CC)C(=O)N1c2ccccc2CCc2ccccc21 | -7.4 |
| CCn1c(O)c(/C=N/N=C2CCCC2)c2ccc(C3=NNC(=O)CC3)cc21 | 45.9 |
| O=C(CCNc1n[nH]c(=O)[nH]c1=O)N/N=C/c1c[nH]c2ccccc12 | -14.6 |
| Cc1ccc(-n2c(=O)c3cc4c(=O)n(-c5ccc(C)c(C)c5)c(=O)c4c(C(=O)c4ccccc4)c3c2=O)cc1C | 12.2 |
| O=C(/C=C/c1ccco1)NC(=S)Nc1ccccc1 | -6.7 |
| COc1ccc(-c2noc(-c3ccc(-c4ccccc4)cc3)n2)cc1 | -11.4 |
| Cc1ccc2ccc(S(=O)(=O)NCc3ccco3)cc2c1 | -6 |
| COc1ccc(NC(=O)CN2C(=O)/C(=C/c3cccc(Br)c3)SC2=S)cc1 | 11.6 |
| O=C(CSc1nc2ccccc2s1)N(c1ccccc1)c1ccccc1 | -12.8 |
| O=C(Nc1cccc(-c2nc3ccccc3o2)c1)c1ccc(NC(=O)c2ccc([N+](=O)[O-])o2)cc1 | 2.4 |
| O=C(NCc1ccco1)C1CN(S(=O)(=O)c2ccccc2)CCN1S(=O)(=O)c1ccccc1 (centres undefined) | 9.8 |
| Cc1ccc(/C(O)=C2\C(=O)C(=O)N(c3ccc(O)cc3)C2c2ccc(C)cc2)cc1 (centres undefined) | -11.3 |
| CCOC(=O)c1c(C)[nH]c(/C=C(\C#N)C(=N)N2CCOCC2)c1O | 40.9 |
| COc1ccc(CNC(=O)c2cccc(N(C)C)c2)cc1 | 7.1 |
| CN1C(=O)/C(=C\c2ccc(OCCOc3ccc(C(C)(C)C)cc3)cc2)SC1=S | 6 |
| COCC(O)CS(=O)(=O)Cc1ccc(Cl)cc1 (centres undefined) | 0.9 |
| O=C(/C=C/c1ccc(OCc2ccccc2)cc1)c1cccc(Br)c1 | 8.8 |
| CC(=O)C1=C(O)C(=O)N(c2nc3ccccc3s2)C1c1ccc(Cl)cc1 (centres undefined) | -2.6 |
| CC(=O)N1CCN(C(CNS(=O)(=O)c2ccc(C)cc2)c2ccccc2)CC1 (centres undefined) | 0.1 |
| COc1ccc(C(=O)/C=C/c2ccc(SC)cc2)cc1OC | -19.8 |
| O=C(Nc1nc2ccccc2[nH]1)C1CCCO1 (centres undefined) | 8.5 |
| CN1C(=O)C(=Cc2ccccc2OCc2ccc([N+](=O)[O-])cc2)C(=O)N(C)C1=O | 11 |

| SMILES | displacement [%] |
| --- | --- |
| O=C1C2C(C(=O)N1/N=C/c1ccc(Cl)cc1)C1C=CC2C12CC2 (centres undefined) | 11.4 |
| COc1ccc(N(CC(=O)NN=C2CCN(C)CC2)S(=O)(=O)c2ccccc2)cc1Cl | 5.2 |
| Cc1cc2ncn(CC(O)COc3ccc4ccccc4c3Br)c2cc1C (centres undefined) | 17 |
| COc1ccc2nc(NC(=O)COc3ccccc3Cl)sc2c1 | 6.7 |
| O=C(O)c1cccc(COc2ccc(C=C3C(=O)c4ccccc4C3=O)cc2)c1 | 21.8 |
| COc1ccc(CCC(=O)C2(O)CCCCC2)cc1 | -12.8 |
| CC(=O)Nc1ccc(/C=N/c2nc3c(C)cc(C)cc3s2)cc1 | 3.9 |
| N#CCOc1ccccc1/C=C1/SC(=S)NC1=O | 8 |
| O=C(Oc1ccccc1)Oc1c(Cl)cc2oc(=O)sc2c1Cl | -6.8 |
| O=S(=O)(Nc1ccc(-c2nc3ccccc3o2)cc1)c1ccccc1 | 6.4 |
| O=C(NCC1CCCO1)C(=O)Nc1ccccc1Cl (centres undefined) | -16.2 |
| Cc1c(Cc2ccccc2)c(=O)oc2c(C)c(OCC(=O)C(C)(C)C)ccc12 | -3.2 |
| COc1ccc(CN2CCN(C(=O)c3cccc(Cl)c3)CC2)c(OC)c1OC | -7.7 |
| CN1C(=O)C(=Cc2ccc(OCCOc3ccc([N+](=O)[O-])cc3)cc2)C(=O)N(C)C1=O | 9.9 |
| CCOc1ccc(-c2cc(C(=O)NCc3ccc(F)cc3)c3ccccc3n2)cc1 | -12.8 |
| O=[N+]([O-])c1cc(-n2ncnc2-c2ccccc2C(F)(F)F)ccc1Cl | -4.8 |
| COc1ccc(NC(=O)c2cc3n(n2)C(C(F)(F)F)CC(c2ccc(Cl)c(Cl)c2)N3)c(OC)c1 (centres undefined) | 3.4 |
| Cc1onc(-c2c(Cl)cccc2Cl)c1C(=O)N1CCN(c2cccc(Cl)c2)CC1 | 12.6 |
| COc1ccc(CN2CCN(S(=O)(=O)c3ccc(C)cc3)CC2)cc1 | 0.1 |
| Cc1c(Cl)cccc1NC(=O)C1c2ccccc2Oc2ccccc21 | 11.9 |
| O=C1NC(=S)S/C1=C/c1cc2c(cc1Cl)OCO2 | 28.9 |
| Cc1ccc(/C=C2\SC(=S)N(CC(=O)O)C2=O)o1 | 26.5 |
| CCOC(=O)C1=C(C)NC(=O)N(C(C)=O)C1c1cccc([N+](=O)[O-])c1 (centres undefined) | 0.4 |
| CCOC(=O)c1ccc2c(c1)C1C=CCC1C(c1ccc(Br)cc1)N2 (centres undefined) | 14.5 |
| CCn1c2ccccc2c2cc(CN3CCN(Cc4ccc(OC)c(OC)c4OC)CC3)ccc21 | 2.1 |
| Fc1ccc(NC(=S)NCCC(c2ccccc2)c2ccccc2)cc1 | -7.4 |

| SMILES | displacement [%] |
| --- | --- |
| COc1ccc(N=Cc2ccc(C)o2)cc1 | -9.7 |
| C=CCn1c(/C=C(/OC(=O)c2ccccc2)c2ccccc2)nc2ccccc21 | 9.4 |
| Cc1ccccc1-c1nc(-c2ccc(F)cc2)no1 | -7 |
| O=C(N/N=C/c1ccco1)c1cc(-c2ccc(Cl)cc2)n[nH]1 | -6 |
| O=C(NCC1CCCO1)c1ccc(Cl)cc1 (centres undefined) | -11.3 |
| COc1cc(/C=N/NS(=O)(=O)c2ccc(C(C)(C)C)cc2)cc(OC)c1OC | 5.5 |
| N/C(=N/OC(=O)c1cccc([N+](=O)[O-])c1)c1ccc(Br)cc1 | 28.7 |
| O=C(N/N=C\c1cn(-c2ccccc2)nc1-c1ccccc1)c1ccc([N+](=O)[O-])cc1 | 3.3 |
| C=CCN1C(=O)/C(=C\c2ccc(C(=O)OC)cc2)SC1=S | 7.8 |
| Cc1cc(C)cc(NC(=O)c2ccc([N+](=O)[O-])o2)c1 | -3.3 |
| COc1ccc(/C=N/NC(=O)C(=O)NCc2ccccn2)cc1 | -5.1 |
| COc1ccc(OC)c(C2C(C(C)=O)=C(O)C(=O)N2CC2CCCO2)c1 (centres undefined) | -5.4 |
| COc1ccc(C(=O)Nc2ccc3nn(-c4ccc(C)c(Cl)c4)nc3c2)cc1[N+](=O)[O-] | 12.7 |
| O=C(CCNS(=O)(=O)c1ccccc1[N+](=O)[O-])Nc1ccc(Br)cc1 | 8.1 |
| C/C(=N\N=C1\NC(=O)C(CC(=O)Nc2cccc(C)c2C)S1)C(C)(C)C (centres undefined) | 10.5 |
| Cc1ccc(-c2cc3nc(C)c(Cl)c(=O)n3[nH]2)cc1 | 19.2 |
| COc1cc(/C=C2/SC(=S)N(C)C2=O)cc(Br)c1OCc1ccc(F)cc1 | 17.9 |
| CCOC(=O)CCCN1C(=O)S/C(=C/c2ccccc2)C1=S | 6.7 |
| O=C1CC(N2CCC(O)(c3ccc(Br)cc3)CC2)C(=O)N1c1ccc(Cl)cc1 (centres undefined) | -2.5 |
| COc1cc(/C=C2\C(=O)N(c3ccc(S(N)(=O)=O)cc3)N=C2C)cc(Cl)c1OCc1ccccc1 | 5.5 |
| CCOC(=O)COc1ccc(/C=C2\C(=O)NN(c3ccc(Cl)c(Cl)c3)C2=O)cc1OC | 14.2 |
| CCOC(=O)C1=C(O)/C(=C/c2ccc(Cl)cc2)SC1=Nc1ccc([N+](=O)[O-])cc1 | -7.6 |
| O=C(Nc1cccc(Br)c1)c1cc([N+](=O)[O-])ccc1Cl | 3.8 |
| CCCCOC(=O)c1ccc(NC(=S)NC(=O)c2ccco2)cc1 | 12.6 |
| O=C(Nc1ccc(S(=O)(=O)Nc2nccs2)cc1)C(Cl)(Cl)Cl | 6.4 |
| CC1=C(C(=O)Nc2ccccc2C)C(c2ccc3c(c2)OCO3)C2=C(CC(C)(C)CC2=O)N1 (centres undefined) | 5.9 |

| SMILES | displacement [%] |
| --- | --- |
| O=C(/C=C/c1ccc(F)cc1)N1CCN(c2ccc(Cl)cc2)CC1 | 1.7 |
| O=C(Nc1ccc(N2CCCCC2)c(Cl)c1)c1ccc([N+](=O)[O-])cc1Cl | 4.8 |
| Cc1ccc(C(=O)Nc2ccccc2C(=O)Nc2ccncc2)cc1 | -6.8 |
| O=c1nc(/C=C/c2cccn2-c2ccc([N+](=O)[O-])cc2)cc(C(F)(F)F)[nH]1 | 6.6 |
| COc1ccc(Oc2coc3cc(OCC(=O)O)ccc3c2=O)cc1 | -5.1 |
| O=C1C=CC(=O)N1c1ccccc1SC(F)(F)F | 11.7 |
| COc1ccc(C2=C(Nc3ccccc3)c3ccccc3C2=O)cc1 | 21.7 |
| O=C(O)c1ccccc1SC1CC(=O)N(c2ccccc2F)C1=O (centres undefined) | 5.6 |
| C=CCOc1ccc(/C=C2/C(=O)NN(c3ccc(C(=O)OCC)cc3)C2=O)cc1OC | -1 |
| COc1ccccc1-c1coc2cc(OC(=O)c3cccc(Cl)c3)ccc2c1=O | 6.5 |
| COc1ccc(/C(N)=N/OC(=O)COc2ccc3ccccc3c2)cc1 | 9.1 |
| CCCCc1ccc(-c2csc(/C(C#N)=C/c3ccc(OC)c(OC)c3)n2)cc1 | 4.8 |
| O=C(Nc1ccc(F)c([N+](=O)[O-])c1)c1cc2ccccc2o1 | -1.5 |
| NC(=O)c1cnn2c1NC(c1ccco1)CC2C(F)(F)F (centres undefined) | 4.2 |
| CC(C)Oc1ccccc1NC(=O)c1ccc(F)c2ccccc12 | -22.4 |
| COc1ccc([N+](=O)[O-])cc1NC(=O)CC(c1ccccc1)c1ccccc1 | 12.9 |
| COc1ccc(OC)c(N2C(=O)CC(Cc3cc(C)cc(C)c3)C2=O)c1 (centres undefined) | 0.4 |
| O=C(CCCN1C(=O)/C(=C/c2cccs2)SC1=S)N1CCOCC1 | 0.8 |
| COc1ccc(C(=O)Nc2cc(Cl)ccc2Cl)cc1NC(=O)c1cccc(F)c1 | 9.5 |
| Cc1cc(/C=C2/SC(=S)NC2=O)c(C)n1-c1cccnc1 | -8.3 |
| CCOc1cc(/C=N/NC(=O)c2cccs2)ccc1OCc1ccc([N+](=O)[O-])cc1 | -10.5 |
| Cc1ccc2c(c1)NC(C)(C)c1sn(Cc3ccc(Cl)cc3)c(=S)c1-2 | 1.4 |
| O=C(CC1(c2ccccc2)C(=O)c2ccccc2C1=O)NC1CCCCC1 | 12.1 |
| O=C(c1ccc2c3c(cccc13)CC2)N1CCN(c2ccccn2)CC1 | 8.7 |
| COc1ccc(/C(=C2\OC(=O)c3ccccc32)[N+](=O)[O-])cc1 | -4.2 |
| CC1CCc2c(sc(NC(=O)/C=C/c3ccccc3)c2C(N)=O)C1 (centres undefined) | 10.5 |

— PubChem BioAssay AID1240 (Sanford-Burnham Center for Chemical Genomics, 2008)
